In PMC10317990:
Results are given in words; binding and its absence hold for the method and conditions named. Binding seen in cells or lysates may run through a third protein. Some binding calls cover weakened binding; strength is not graded here.

The chains behind the UniProt entries cited, without tags or fusion partners. Where a name states a change or a piece, a line headed by the entry shows the natural chain unless it says otherwise. A line that says so, or that is headed by a name, gives the form on record, which may keep a tag or linker. Residues count along the entry.
UniProt Q13761: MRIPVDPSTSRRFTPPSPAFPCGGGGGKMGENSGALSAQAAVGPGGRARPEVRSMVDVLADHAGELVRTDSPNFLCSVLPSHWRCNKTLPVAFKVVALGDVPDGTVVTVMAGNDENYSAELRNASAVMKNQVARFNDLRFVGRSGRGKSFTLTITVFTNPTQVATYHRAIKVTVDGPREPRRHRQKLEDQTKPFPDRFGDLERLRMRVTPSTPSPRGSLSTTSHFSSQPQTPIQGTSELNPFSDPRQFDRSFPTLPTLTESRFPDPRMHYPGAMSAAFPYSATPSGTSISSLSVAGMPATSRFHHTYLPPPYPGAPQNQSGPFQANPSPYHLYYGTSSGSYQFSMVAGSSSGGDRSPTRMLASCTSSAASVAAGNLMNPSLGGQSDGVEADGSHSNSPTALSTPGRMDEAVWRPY
FLAG-tagged RUNX3 truncation (aa 1-187): residues 1-187 of Q13761
UniProt Q01196: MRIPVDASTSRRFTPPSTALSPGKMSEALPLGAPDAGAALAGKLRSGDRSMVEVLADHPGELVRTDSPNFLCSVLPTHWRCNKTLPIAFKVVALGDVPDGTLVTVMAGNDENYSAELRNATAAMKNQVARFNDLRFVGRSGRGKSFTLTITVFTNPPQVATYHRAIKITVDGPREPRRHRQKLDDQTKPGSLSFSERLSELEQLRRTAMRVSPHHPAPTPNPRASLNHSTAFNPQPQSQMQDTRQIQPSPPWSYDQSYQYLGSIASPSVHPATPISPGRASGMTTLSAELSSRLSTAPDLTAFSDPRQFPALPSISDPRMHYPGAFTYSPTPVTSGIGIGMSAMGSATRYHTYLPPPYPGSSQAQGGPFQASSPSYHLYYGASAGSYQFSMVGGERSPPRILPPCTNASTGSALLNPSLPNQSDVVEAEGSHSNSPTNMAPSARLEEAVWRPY
UniProt Q13950: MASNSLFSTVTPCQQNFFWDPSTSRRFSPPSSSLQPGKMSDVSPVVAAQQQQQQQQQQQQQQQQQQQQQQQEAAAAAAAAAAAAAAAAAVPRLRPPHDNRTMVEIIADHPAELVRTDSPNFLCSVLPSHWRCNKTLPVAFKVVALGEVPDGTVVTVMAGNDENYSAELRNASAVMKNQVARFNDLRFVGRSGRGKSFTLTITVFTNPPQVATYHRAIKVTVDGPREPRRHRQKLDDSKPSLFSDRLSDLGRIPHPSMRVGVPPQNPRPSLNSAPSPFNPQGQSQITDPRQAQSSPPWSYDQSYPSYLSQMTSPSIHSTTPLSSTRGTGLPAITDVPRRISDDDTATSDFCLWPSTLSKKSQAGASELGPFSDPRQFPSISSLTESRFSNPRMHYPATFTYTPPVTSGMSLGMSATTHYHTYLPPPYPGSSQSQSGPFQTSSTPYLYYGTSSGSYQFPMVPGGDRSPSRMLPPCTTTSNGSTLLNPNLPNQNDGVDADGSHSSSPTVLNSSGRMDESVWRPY
UniProt P01106: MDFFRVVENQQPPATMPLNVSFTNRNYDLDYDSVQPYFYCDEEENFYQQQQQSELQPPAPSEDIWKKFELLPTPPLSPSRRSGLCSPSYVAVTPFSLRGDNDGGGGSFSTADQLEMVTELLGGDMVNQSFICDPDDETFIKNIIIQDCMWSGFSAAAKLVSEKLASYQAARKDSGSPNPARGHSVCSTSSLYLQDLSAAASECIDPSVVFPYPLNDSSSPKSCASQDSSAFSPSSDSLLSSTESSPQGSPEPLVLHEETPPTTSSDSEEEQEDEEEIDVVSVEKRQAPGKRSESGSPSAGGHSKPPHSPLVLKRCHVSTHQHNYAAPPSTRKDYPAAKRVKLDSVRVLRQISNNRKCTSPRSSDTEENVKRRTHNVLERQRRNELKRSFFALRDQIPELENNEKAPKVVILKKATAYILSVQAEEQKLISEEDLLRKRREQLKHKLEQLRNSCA
HA-tagged MYC: residues 16-454 of P01106
HA-tagged MYC aa 1-171: residues 16-186 of P01106
HA-tagged MYC aa 357-439: residues 372-454 of P01106
UniProt P49841: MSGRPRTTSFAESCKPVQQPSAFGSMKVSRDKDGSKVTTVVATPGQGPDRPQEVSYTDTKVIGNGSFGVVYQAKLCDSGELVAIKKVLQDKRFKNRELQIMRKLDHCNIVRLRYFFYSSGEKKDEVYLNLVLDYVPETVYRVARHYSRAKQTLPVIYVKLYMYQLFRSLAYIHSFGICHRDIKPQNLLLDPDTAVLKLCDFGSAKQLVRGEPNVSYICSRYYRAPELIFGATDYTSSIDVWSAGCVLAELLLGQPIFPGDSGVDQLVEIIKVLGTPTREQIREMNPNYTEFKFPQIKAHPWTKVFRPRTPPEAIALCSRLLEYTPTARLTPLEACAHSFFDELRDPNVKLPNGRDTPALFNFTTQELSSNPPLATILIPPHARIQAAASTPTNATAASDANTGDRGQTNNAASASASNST
UniProt Q969H0: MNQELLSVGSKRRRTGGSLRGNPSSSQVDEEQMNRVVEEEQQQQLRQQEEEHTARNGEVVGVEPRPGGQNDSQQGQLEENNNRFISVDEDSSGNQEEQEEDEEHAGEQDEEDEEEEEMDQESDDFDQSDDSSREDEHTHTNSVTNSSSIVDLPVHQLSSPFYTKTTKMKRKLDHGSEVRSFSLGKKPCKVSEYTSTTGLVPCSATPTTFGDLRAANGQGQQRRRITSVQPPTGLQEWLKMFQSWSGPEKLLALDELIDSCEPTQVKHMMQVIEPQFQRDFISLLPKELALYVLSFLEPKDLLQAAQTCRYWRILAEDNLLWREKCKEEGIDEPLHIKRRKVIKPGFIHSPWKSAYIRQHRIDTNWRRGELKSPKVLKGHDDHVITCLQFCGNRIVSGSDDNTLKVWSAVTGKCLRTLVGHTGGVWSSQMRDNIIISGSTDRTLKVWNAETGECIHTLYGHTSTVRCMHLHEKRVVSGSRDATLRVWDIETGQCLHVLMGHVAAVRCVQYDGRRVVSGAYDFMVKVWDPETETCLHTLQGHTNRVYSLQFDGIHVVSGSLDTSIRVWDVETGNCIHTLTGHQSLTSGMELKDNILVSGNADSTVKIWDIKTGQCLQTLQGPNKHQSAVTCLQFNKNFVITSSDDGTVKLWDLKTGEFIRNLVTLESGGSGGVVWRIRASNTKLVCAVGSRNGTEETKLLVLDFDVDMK
UniProt P61244: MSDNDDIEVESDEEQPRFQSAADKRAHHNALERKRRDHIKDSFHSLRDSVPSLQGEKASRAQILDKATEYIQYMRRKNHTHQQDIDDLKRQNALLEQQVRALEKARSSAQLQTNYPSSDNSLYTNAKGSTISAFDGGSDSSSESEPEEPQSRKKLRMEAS
UniProt Q13951: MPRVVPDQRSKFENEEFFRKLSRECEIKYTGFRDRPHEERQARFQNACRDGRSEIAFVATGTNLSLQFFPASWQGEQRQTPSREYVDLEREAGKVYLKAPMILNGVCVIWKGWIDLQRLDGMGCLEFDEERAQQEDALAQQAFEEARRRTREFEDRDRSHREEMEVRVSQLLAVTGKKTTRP

Experiments:
[1] = target: FLAG-tagged RUNX3 (human) (UniProt Q13761); assay: co-IP; HEK293T cells transfected with the indicated plasmids, lysed 24 h later; 400 µg lysate, 90 min with anti-HA affinity gel or Flag M2 affinity gel in 25 mM Tris pH 8.0, 0.15 M NaCl, 0.25 mM EDTA, 2.5% glycerol, 0.25% NP40, 1 mM DTT; Benzonase in the lysis buffer; immunoblot
[2] = target: FLAG-tagged RUNX3 truncation (aa 1-187) (human) (UniProt Q13761); assay: as above
RUNX1 (human) = RUNX1 (human) (UniProt Q01196); assay: as above
RUNX2 (human) = RUNX2 (human) (UniProt Q13950); assay: as above
[3] = target: RUNX3 R122C mutant (human) (UniProt Q13761); assay: as above
FLAG-tagged MYC = FLAG-tagged MYC (UniProt P01106); assay: as above
[4] = target: endogenous RUNX3 (human (endogenous in HGC27)) (UniProt Q13761); assay: proximity ligation; Duolink in situ PLA on HGC27 cells, endogenous proteins, pairs of primary antibodies
[5] = target: endogenous RUNX3 (human (endogenous in HGC27)) (UniProt Q13761); assay: co-IP; endogenous proteins, 1 mg HGC27 whole-cell lysate, anti-RUNX3 antibody (D9K6L) or normal IgG overnight at 4 °C, Dynabeads Protein G; immunoblot
HA-tagged MYC = HA-tagged MYC (UniProt P01106); assay: co-IP; HEK293T cells transfected with the indicated plasmids, lysed 24 h later; 400 µg lysate, 90 min with anti-HA affinity gel or Flag M2 affinity gel in 25 mM Tris pH 8.0, 0.15 M NaCl, 0.25 mM EDTA, 2.5% glycerol, 0.25% NP40, 1 mM DTT; Benzonase in the lysis buffer; immunoblot

“HA-tagged MYC (from UniProt P01106-1 1-439)” was tested, and the binding [1] was “binds”, the binding [2] was “binds” and the binding (RUNX1 (human)) was “binds”. For the same substance, the binding (RUNX2 (human)) was “binds” and the binding [3] was “no binding”.
In the case of “GSK3β (from UniProt P49841 1-420) (enzyme)”, the binding [2] was “binds”.
For “Untagged RUNX3 (from UniProt Q13761 1-415)”, the binding (FLAG-tagged MYC) was “binds”.
With FBXW7 (from UniProt Q969H0 1-707) the binding [1] was “binds” and the binding [2] was “binds”.
For “endogenous GSK3β (from UniProt P49841 1-420) (enzyme)”, the binding [4] was “binds” and the binding [5] was “binds”.
With “endogenous MAX (from UniProt P61244 1-160)” the binding [4] was “no binding”.
With “HA-tagged MYC aa 357-439 (from UniProt P01106-1 357-439) (domain or fragment)” the binding [1] was “binds”.
CBFβ (from UniProt Q13951 1-182) was tested, and the binding (HA-tagged MYC) was “binds”.
In the case of “HA-tagged MYC aa 1-171 (from UniProt P01106-1 1-171) (domain or fragment)”, the binding [1] was “binds”.
With MAX (from UniProt P61244 1-160) the binding [1] was “no binding”.
For “endogenous FBXW7 (from UniProt Q969H0 1-707)”, the binding [4] was “binds” and the binding [5] was “binds”.
